Data reported in PubChem BioAssay AID720708 (National Center for Advancing Translational Sciences (NCATS), 2013).
Out of some 360,000 compounds screened, about 660 (0.18%) were called active. This list was built around the results that the source calls inconclusive (neither active nor inactive); the mix of calls is not that of the screen. The call rests on the fitted dose curve; in most records, active means well fitted inhibition curve with a large enough effect; inconclusive means small, poorly fitted or top-dose-only effect; inactive means no such curve, though single readings can be large or run the other way. Potencies of inconclusive entries are left out as doubtful fits.

The compounds below were run against Rap guanine nucleotide exchange factor 4 (Homo sapiens) (UniProt Q8WZA2) (assay: qHTS for Antagonist of cAMP-regulated guanine nucleotide exchange factor 2 (EPAC2): primary screen). Conditions: EPAC2 GEF exchange of Rap1B-BODIPY-GDP, fluorescence; series mostly up to 114 µM.
Further: nearly all actives have a fitted effect of over 45% in size.
Potency means the concentration at half of the fitted maximal effect; tags describe the fitted curve by direction and shape.

UniProt Q8WZA2, sequence (Q8WZA2 whole entry, looked up): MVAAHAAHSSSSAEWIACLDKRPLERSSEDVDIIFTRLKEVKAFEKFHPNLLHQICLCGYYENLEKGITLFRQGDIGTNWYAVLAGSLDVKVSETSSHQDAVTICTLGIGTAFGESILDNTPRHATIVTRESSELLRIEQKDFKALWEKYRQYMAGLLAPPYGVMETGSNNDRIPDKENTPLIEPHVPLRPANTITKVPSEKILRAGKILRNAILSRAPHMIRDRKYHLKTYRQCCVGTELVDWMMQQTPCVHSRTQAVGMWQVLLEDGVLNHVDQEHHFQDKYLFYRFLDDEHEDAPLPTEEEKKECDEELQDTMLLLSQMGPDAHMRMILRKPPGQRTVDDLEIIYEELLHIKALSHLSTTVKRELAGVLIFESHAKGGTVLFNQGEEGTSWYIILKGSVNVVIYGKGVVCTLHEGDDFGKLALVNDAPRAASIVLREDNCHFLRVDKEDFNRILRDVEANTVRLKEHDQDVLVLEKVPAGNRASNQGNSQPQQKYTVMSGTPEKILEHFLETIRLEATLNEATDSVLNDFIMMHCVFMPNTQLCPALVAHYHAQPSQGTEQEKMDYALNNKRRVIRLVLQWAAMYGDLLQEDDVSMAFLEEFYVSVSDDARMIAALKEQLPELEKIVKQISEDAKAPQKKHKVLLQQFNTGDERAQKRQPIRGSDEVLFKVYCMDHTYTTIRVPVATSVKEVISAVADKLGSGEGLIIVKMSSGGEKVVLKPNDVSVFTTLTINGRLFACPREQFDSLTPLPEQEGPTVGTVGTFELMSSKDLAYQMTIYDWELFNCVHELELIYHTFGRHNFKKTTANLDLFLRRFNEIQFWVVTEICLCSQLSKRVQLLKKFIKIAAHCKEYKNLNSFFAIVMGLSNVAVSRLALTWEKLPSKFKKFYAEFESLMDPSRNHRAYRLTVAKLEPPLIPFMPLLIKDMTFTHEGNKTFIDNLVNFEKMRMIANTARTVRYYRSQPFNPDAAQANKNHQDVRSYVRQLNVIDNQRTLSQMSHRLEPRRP

| SMILES | Potency |
| --- | --- |
| COc1ccc(C2CC(c3c(O)n(CCc4ccccc4)c(=O)[nH]c3=O)=NN2)cc1OC (stereo not given) | inconclusive [inhibitor, partial curve] |
| COC(=O)C1=C(c2ccc(OC(F)(F)F)cc2)C[C@@H]2CC[C@H]1N2C(=O)NCCOc1ccccc1Cl | inconclusive [inhibitor, full curve] |
| CC1(C(=O)O)CCC2(C)CCC3(C)C(=CC(=O)C4C5(C)CCC(=O)C(C)(C)C5CCC43C)C2C1 (stereo not given) | inconclusive [inhibitor, full curve] |
| Oc1cc2c(cc1CN1CCN(c3ccccc3)CC1)OCO2 | inactive |
| CC(C)N1CCN(c2ccc(O)cc2)CC1 | inactive |
| COc1ccc(CN2Cc3cnnn3-c3ccccc3C2c2ccccc2)cc1 (stereo not given) | inconclusive [inhibitor, full curve] |
| Cc1ccccc1N1C(=O)NC(=O)/C(=C\c2cc(Br)c(N3CCOCC3)o2)C1=O | inactive |
| CCOC(=O)N(c1ccccc1)P1(=S)OCCO1 | inactive |
| O=C1NCN(c2ccccc2)C12CCN(C(c1ccnc3ccccc13)c1nnnn1-c1ccc3c(c1)OCCO3)CC2 (stereo not given) | inactive |
| COc1ccc(C(c2ccc(OC)cc2)C(Cl)(Cl)Cl)cc1 | inconclusive [inhibitor, partial curve] |
| CCN(CC)C(=O)c1ccc2c(c1)C1C=CCC1C(C(=O)O)N2 (stereo not given) | inactive |
| CN(C)c1ccc(/C=C/C=C2/C(=O)NC(=O)N(c3ccccc3)C2=O)cc1 | inconclusive [inhibitor, partial curve] |
| O=C(COc1ccc(Br)cc1)N1CCN(Cc2c[nH]c3ccccc23)CC1 | inactive |
| CCOC(=O)[C@]12Cc3cc4c(cc3[C@H]1N(Cc1ccccc1)C(=O)c1ccccc12)OCO4 | inconclusive [inhibitor, partial curve] |
| COC(=O)C1=C(c2ccc(Cl)c(C(F)(F)F)c2)C[C@@H]2CC[C@H]1N2C(=O)N1CCCC1 | inconclusive [inhibitor, full curve, poor fit] |
| O=C(O)CC1OCC=C2CN3CCC45c6ccccc6NC4C1C2CC35 (stereo not given) | inactive |
| CC[n+]1c(-c2ccccc2)c2cc(N)ccc2c2ccc(N)cc21 | inactive |
| Oc1ccc(O)c2c1C1(Cl)C(Cl)=C(Cl)C2(Cl)C1(Cl)Cl | inconclusive [inhibitor, partial curve] |
| c1ccc(-c2ccc(-c3n(-c4ccccn4)c4ccccc4[n+]3-c3ccccn3)cc2)cc1 | inconclusive [inhibitor, partial curve] |
| Cc1cc(/C=C2\C(=O)NC(=O)N(c3ccc(F)cc3)C2=O)c(C)n1-c1cccc(C(=O)O)c1 | inconclusive [inhibitor, partial curve] |
